Several values for one entry are separate records, joined by “and”; a condition that tells them apart may be missing. Identical values can stand only once. Among all 420,000 compounds or so, about 50,000 (12%) were called active. This list was built around the results that the source calls inconclusive (neither active nor inactive); the mix of calls is not that of the screen. Calls come from the whole dose curve; as a rule, active = well fitted inhibition curve with a large enough effect; inconclusive = small, poorly fitted or top-dose-only effect; inactive = flat fitted curve, though single readings scatter. Potencies beside an inconclusive call are fits to weak or partial responses and may not hold up.
Experiment: qHTS for Inhibitors of human tyrosyl-DNA phosphodiesterase 1 (TDP1): qHTS in cells in presence of CPT; note: nearly all actives have a fitted effect of over 55% in size
Details: chicken DT40 Tdp1-/-;hTDP1 cells + 20 nM CPT, ATP luminescence, 48 h; activity change, negative = growth inhibition: at 46.2 µM (top of the series)
Summary of the method: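 Cell growth measured by CellTiter-Glo luminescence after a minimum 48 h, 37 C compound exposure with 20 nM CPT in Tdp1-knockout DT40 cells stably expressing hTDP1, seeded 400/well; qHTS titration format.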
% is set by controls: 0 for no effect and ±100 for the full control effect; potency is the fitted concentration of half-maximal effect; tags give direction and shape of the fitted curve.

Row | SMILES | Potency | activity change, negative = growth inhibition
1 | COc1ccccc1-n1cnnc1SCc1csc(-c2ccccc2)n1 | inconclusive: 29.1 µM [inhibitor, single point] | 
2 | O=c1c(-n2cncn2)c[nH]n1-c1cccc(Cl)n1 |  | inactive: 3.9%
3 | COc1ccc(-n2c(CCc3ccccc3)nnc2SCC(=O)c2ccccc2)cc1 | inconclusive: 18.4 µM [inhibitor, single point] | 
4 | FC(F)(F)c1cccc(NC(=S)Nc2cccc(Cl)c2)c1 | inconclusive: 29.1 µM [inhibitor, single point] | 
5 | CCOC(=O)N1CCC(N2Cc3cccc(C(=O)Nc4ccc(CC)cc4)c3C2=O)CC1 | inconclusive: 25.9 µM [inhibitor, single point] | 
6 | CCc1nc2ccc(C(=O)NCCN3CCOCC3)cn2c1N(CCC(C)C)CCN(C)C |  | inactive: -11.6%
7 | O=C(Nc1nc2c(F)cc(F)cc2s1)C1COc2ccccc2O1 (stereo not drawn) | inconclusive: 20.6 µM [inhibitor, single point] | 
8 | CS(=O)c1ccccc1COC(=O)Nc1ccc(Cl)cc1 (stereo not drawn) | inconclusive: 13 µM [inhibitor, partial curve, poor fit] | 
9 | COc1ccc(C(=O)Nc2ccc3c4c(cccc24)CC3)cc1 |  | inactive: -9.78%
10 | CCNS(=O)(=O)c1ccc(CCC(=O)Nc2cc(Cl)ccc2Oc2ccccc2)cc1 | inconclusive: 23.1 µM [inhibitor, single point] | 
11 | O=C(NC1CCCCC1)C(CCc1ccccc1)n1c(=O)c(-c2ccccc2)nc2ccccc21 (stereo not drawn) | inconclusive: 20.6 µM [inhibitor, single point] | 
12 | O=C1CSC(c2nn(-c3ccccc3)cc2-c2cc3ccccc3oc2=O)N1Cc1ccco1 (stereo not drawn) | inconclusive: 16.4 µM [inhibitor, partial curve] | 
13 | COC(=O)Cc1cc(C)cc2c(=O)cc(-c3ccoc3)oc12 |  | inactive: -22.7%
14 | Cc1ccn2c(C(=O)NN=C3CCN(C)CC3)c(C)nc2c1 |  | inactive: 28.6%
15 | Cc1ccc(Nc2c(-c3ccc(N4CCOCC4)cc3)nc3cccc(C)n23)cc1 | active: 23.1 µM | 
16 | Cc1nc(Nc2ccccc2)sc1C(=O)c1ccc(F)cc1 | inconclusive: 29.1 µM [inhibitor, single point] | 
17 | Cc1cccc(CN2C(=O)c3ccccc3S(=O)(=O)c3ccc(C(=O)N(C)Cc4ccccc4)cc32)c1 | active: 16.4 µM | 
18 | OC(c1cccc(OCc2ccccc2)c1)c1nnc(-c2ccccc2)o1 (stereo not drawn) | active: 18.4 µM | 
19 | O=C(Nc1ccc(C(F)(F)F)cc1-c1ccccc1)c1ccccc1 | inconclusive: 29.1 µM [inhibitor, single point] | 
20 | CCOC(=O)c1c(C)[nH]c(C)c1C(=O)CSc1nc2ccccc2c(=O)n1-c1ccc(Cl)cc1 | active: 16.4 µM | 
21 | CCOC(=O)c1c(NC(=O)c2ccccc2C)sc2c1CC(C)(C)OC2 | inconclusive: 29.1 µM [inhibitor, single point] | 
22 | CCCCN(C(=O)c1cc(-c2ccc(F)cc2)nc2ccccc12)c1c(N)n(CCCC)c(=O)[nH]c1=O | inconclusive: 16.4 µM [inhibitor, single point] | 
23 | CCN=C(Nc1ccc2c(c1)OCO2)SC1CC(=O)N(c2ccc(OC)cc2)C1=O (stereo not drawn) | inconclusive: 20.6 µM [inhibitor, partial curve] | 
24 | C[C@H]1CN([C@@H](C)CO)C(=O)CCCn2nncc2CO[C@H]1CN(C)C(=O)c1ccc(N2CCN(C)CC2)cc1 |  | inactive: 1.79%
25 | O=C(COC(=O)C1CC1)Nc1nc(-c2ccc(F)c(F)c2)cs1 | active: 20.6 µM | 

Row | SMILES | Potency | activity change, negative = growth inhibition
26 | Cc1ccc(C)c(NC(=O)NCCN2CCCCC2)c1 |  | inactive: 24.6%
27 | Cc1nc(-c2cccc(NC(=O)C(C)Oc3ccccc3)c2)cs1 (stereo not drawn) | inconclusive: 29.1 µM [inhibitor, single point] | 
28 | Cc1cc2oc(=O)cc(CN(C)Cc3cccc(F)c3)c2cc1C | inconclusive: 23.1 µM [inhibitor, single point] | 
29 | Cc1ccc(NC(=O)c2c(C)nc3sc(C(=O)Nc4ccc(F)cc4)c(N)c3c2-c2ccc(Cl)cc2)c(C)c1 |  | inactive: -8.58%
30 | CNC(=O)CN1C(=O)CSc2ncccc21 |  | inactive: -2.32%
31 | COP(=O)(OC)c1nc(-c2ccccc2)oc1N1CCOCC1 |  | inactive: 22.5%
32 | CC1(C(=O)NS(=O)(=O)c2ccc(Cl)cc2)CCN1C(=O)CCc1ccccc1 (stereo not drawn) | inconclusive: 8.2 µM [inhibitor, partial curve, poor fit] | 
33 | CCOc1ccccc1C(=O)Nc1ccc(-n2nncc2-c2ccccc2)cc1 | inconclusive: 16.4 µM [inhibitor, single point] | 
34 | CCOC(=O)c1c(NC(=O)COc2ncnc3ccccc23)sc(C(C)=O)c1C | active: 13 µM | 
35 | CCC1C(O)=C(c2ccccn2)C(=N)N1c1ccccc1 (stereo not drawn) | inconclusive: 29.1 µM [inhibitor, single point] | 
36 | Cc1cc(NC(=O)c2ccco2)sc1C | inconclusive: 29.1 µM [inhibitor, single point] | 
37 | COc1ccc(-c2nc(N)ncc2-c2ccc(OC)c(OC)c2)c(O)c1 | inconclusive: 29.1 µM [inhibitor, partial curve] | 
38 | Cc1ccc(N(C)C(=O)CN(C)S(=O)(=O)c2ccc3c(c2)n(C)c(=O)c(=O)n3C)cc1 |  | inactive: 17.3%
39 | O=C(CSc1nc(-c2ccccc2)nc2ccc(F)cc12)Nc1cccc(C(=O)O)c1 |  | inactive: -13.3%
40 | O=C1NC(=S)S/C1=C\c1ccc(SCc2ccco2)o1 | active: 18.4 µM | 
41 | NC(=O)c1nc[nH]c1C(=O)Nc1cccc(C(F)(F)F)c1 |  | inactive: -17.8%
42 | CCc1c(O)c(/C(C)=N\O)c(=O)n(-c2ccccc2)c1-c1ccccc1 |  | inactive: 15.8%
43 | CSc1cccc(NC(=S)N(Cc2ccc(C)cc2)Cc2ccccn2)c1 |  | inactive: 11.8%
44 | COc1ccccc1C(=O)Nc1nnc(S(=O)(=O)N2CCN(c3ccc(F)cc3)CC2)s1 | inconclusive: 16.4 µM [inhibitor, single point] and inconclusive: 29.1 µM [inhibitor, single point] | 
45 | CC(C)(C)n1cnc2cc(NS(=O)(=O)c3ccc(Br)cc3)ccc21 | inconclusive: 16.4 µM [inhibitor, single point] | 
46 | COc1ccccc1CNC(=O)C(Cc1c[nH]c2ccccc12)NC(=O)OCc1ccccc1 (stereo not drawn) | inconclusive: 29.1 µM [inhibitor, single point] | 
47 | N#Cc1ccccc1OCC(=O)OCC(=O)NC1CCCC1 |  | inactive: -0.345%
48 | Cc1nc(SCC(=O)NCc2ccc(F)cc2)c2c(=O)n(C)c(=O)n(C)c2n1 | inconclusive: 20.6 µM [inhibitor, single point] | 
49 | O=C(NNC1CC(=O)N(c2ccccc2)C1=O)c1ccc(COc2ccccc2Cl)o1 (stereo not drawn) |  | inactive: -14.3%
50 | CC1CN(CCS(=O)(=O)c2cc(Cl)ccc2Cl)CC(C)O1 (stereo not drawn) | inconclusive: 18.4 µM [inhibitor, single point] | 

Row | SMILES | Potency | activity change, negative = growth inhibition
51 | CC1=C(/C=N/Nc2ccc([N+](=O)[O-])cc2[N+](=O)[O-])C(C)(C)CCC1 | inconclusive: 29.1 µM [inhibitor, single point] | 
52 | CCCCCCCNc1ccc(/C=C/c2ccnc3ccccc23)cc1 | inconclusive: 20 µM [inhibitor, single point] | 
53 | CCc1cc(C(=O)OC)c(NC(=O)CC2Sc3ccc(C(F)(F)F)cc3NC2=O)s1 (stereo not drawn) | inconclusive: 14.6 µM [inhibitor, single point] | 
54 | COc1cccc(NC(=O)CN(C)C(=O)c2cc(Cl)nc3ccccc23)c1 |  | inactive: -8.6%
55 | COC(=O)c1ccc(C2NCCc3cc(OC)c(OC)cc32)cc1 (stereo not drawn) |  | inactive: -11.5%
56 | COc1cccc(C2Nc3ccc4ccccc4c3C3=C2C(=O)CCC3)c1O (stereo not drawn) | inconclusive: 16.4 µM [inhibitor, single point] | 
57 | Cc1ccc(NC2CC(=O)N(CCc3ccccc3)C2=O)cc1 (stereo not drawn) | inconclusive: 0.0326 µM [inhibitor, full curve, poor fit] | 
58 | CN(C)C(=S)Nc1ccc(Br)c(Cl)c1 |  | inactive: -0.198%
59 | O=C1CN(C(=O)CCCc2c[nH]c3ccccc23)c2ccccc2N1 | inconclusive: 14.1 µM [inhibitor, single point] | 
60 | FC(F)(F)c1nnc2ccc(NCc3ccccc3)nn12 |  | inactive: 11.5%
61 | OC1(c2ccc3c(c2)CN(Cc2nccs2)CCO3)CCN(c2ccccc2F)CC1 | inconclusive: 23.1 µM [inhibitor, single point] | 
62 | Cc1ccnc(NCc2cc(Cl)ccc2O)c1 | inconclusive: 23.1 µM [inhibitor, single point] | 
63 | COc1c(-c2ccc(O)cc2)oc2cc(O)cc(O)c2c1=O | inconclusive: 18.4 µM [inhibitor, single point] | 
64 | CN(C)CCN1C(=O)c2ccccc2C1=O |  | inactive: -0.41%
65 | COCc1cc(=O)[nH]c(/N=C(\N)Nc2cccc(Cl)c2)n1 | inconclusive: 29.1 µM [inhibitor, single point] | 
66 | CC1=C(C(=O)N(C)C)CC(CC(=O)NCCCCc2ccccc2)C(=O)N1CCCN1CCCC1=O (stereo not drawn) |  | inactive: 2.58%
67 | Cc1ccc(Nc2nc(NCCO)nc3c2cnn3C)cc1Cl | active: 20.6 µM | 
68 | O=C(c1ccc(=O)[nH]c1)N(Cc1ccco1)C1(C(=O)NC2CCCC2)CCCCC1 |  | inactive: -25.2%
69 | COc1ccc(C(=O)Nc2ccccc2C(=O)NCC2CCCO2)cc1 (stereo not drawn) | inconclusive: 7.31 µM [inhibitor, partial curve] | 
70 | CCOC(=O)c1c(-c2cc(OC)c(OC)c(OC)c2)csc1N | active: 23.1 µM | 
71 | Cn1c(=O)c(C(=O)NCc2ccc(Cl)cc2)c(O)c2ccccc21 | inconclusive: 16.4 µM [inhibitor, single point] | 
72 | COc1ccc2[nH]c(=O)c(CN(C(=O)NC3CCCCC3)C3CCCCC3)cc2c1 | active: 20.6 µM | 
73 | CCC(C(=O)Nc1ccc(C(C)C)cc1)n1nc(C)n2c(cc3cc(C)ccc32)c1=O (stereo not drawn) | active: 23.1 µM | 

From PubChem BioAssay AID686979 (National Center for Advancing Translational Sciences (NCATS), 2013)
